This passage reports self-cleavage results from the RNAGym collection of RNA variant scans (doi:10.7554/elife.90254).

B1: LINE1-mini (parent)
chain: GGCAGAGCUCAACACAGCGUGGCAAAGUGGCUGUGGCUAGACUGCC

The source gives no read counts; variants with many changes may rest on few reads.

Variants of B1 are the subject of this data set. Put plainly: self-cleavage, relative activity (ratio to wild type); higher = more cleavage; in vitro, sequencing; the parent is a self-cleaving ribozyme.
Regarding G2U C10A C23G, the self-cleavage is 0.1.

With G2U A26U U34G C42U, the self-cleavage stood at 0. Take G2U C3U C10U C31A: the self-cleavage is 0.04. As for G2U C8G C13U G30A, the figure is 0.07; as for G2U G5A G21C C42G C45U, 0.03. As to G2U C3G C31A U34A G35C, the self-cleavage worked out at 0.02. As for G2U G7A U20A C46U, the figure is 0.02; as for G2U A12U G19A G40U, 0.03; as for G2U A24G G36A, 0.03.

On to G2U C3A G22A C23A, for which the self-cleavage worked out at 1.5.

Consider G2U A26C G30U G44U, for which the self-cleavage came out at 0.19. For the variant G2U A25U G29A, the self-cleavage turned out to be 0.07. As for G2U C10A A14C, the figure is 0.02. For the variant G2U A14U U28C C31A, the self-cleavage turned out to be 0.03.

On to G2U G7C U38C, for which the self-cleavage is 0.07. As to G2U A16G U20G A39G, the self-cleavage worked out at 0.01. G2U G7U A14C G21U G22A G27U G35A: the self-cleavage amounted to 0.04. The figure for G2U A25C C46G is 0.03; for G2U C10A A24C G30C U32A it is 0.01; for G2U C31A U43C it is 0.03.

Turning to G2U C10G U20A A24U U34G C46G, the self-cleavage is 0. In the case of G2U G7A A25G, the self-cleavage turned out to be 0.02.

For the variant G2U A14U G17U U28G U34C, the self-cleavage worked out at 0.01. G2U G5C A16C G27C G36C C46A: the self-cleavage stood at 0.

Turning to G2U C10U A26G G40C, the self-cleavage is 0. For the variant G2U C3A U32A C37G, the self-cleavage was 0. Consider G2U C8A C37U A39U G44A, for which the self-cleavage is 0.05. Take G2U C10G A11U: the self-cleavage stood at 0.02. As for G2U A39C G40U, the self-cleavage stood at 0. On to G2U A16U G29A G35A G40U, for which the self-cleavage turned out to be 0.05. For the variant G2U C10A A12U C15U, the self-cleavage worked out at 0.02. For the variant G2U C8U A14U G22U, the self-cleavage was 0.04. With G2U C18G A25U C31G, the self-cleavage is 0. Regarding G2U C10G C37G, the self-cleavage was 0.03. As for G2U C10U G22A G27A A41U, the figure is 0.04. G2U C23U G30U A39G: the self-cleavage was found to be 0.08.

For G2U C3G C8U A39U, the self-cleavage amounted to 0.24.

For the variant G2U C3A A4G C15A, the self-cleavage is 0. Regarding G2U C8G A11U A26C, the self-cleavage turned out to be 0.06. As for G2U C3A C45A, the self-cleavage is 0.34.

For the variant G2U C8U A14U A26G U28G G29C C46A, the self-cleavage is 0.02. As to G2U C3U A14C C46A, the self-cleavage was 0.05. Take G2U A14U U20G A25C G36C: the self-cleavage worked out at 0.06. As to G2U C8U G44A, the self-cleavage was 0.09. Take G2U A25G G27U C46A: the self-cleavage was determined as 0.02.

G2U C8U G36A C42A: the self-cleavage is 0.05. For G2U C15A G30A A39C, the self-cleavage was 0.02.

Take G2U C3G C8U A14U G27A: the self-cleavage came to 0.15. The figure for G2U C8A C10A G21C A41G G44C is 0.01; for G2U C3U A12C A14G G29A it is 0.01. Regarding G2U A14C G40A, the self-cleavage was 0. The figure for G2U C8U C10U C37G G44A is 0.03; for G2U C3A A6U A11G it is 0; for G2U C8U C15U C31A C37A U38A it is 0.1. Turning to G2U A14C A39U G40U A41G, the self-cleavage is 0. For the variant G2U C15U U28A, the self-cleavage is 0.02. G2U C10A G22U: the self-cleavage stood at 0.02. For G2U C31A G35A G36U, the self-cleavage came to 0.04. The figure for G2U C3A A16C U20A G22C is 0.1; for G2U C10A A41U it is 0. As for G2U G5U G22U G27A A41G C42U, the figure is 0.05; as for G2U C8U C13A, 0.05; as for G2U A26G C46A, 0.19. In the case of G2U A26G U34G, the self-cleavage stood at 0.02. As for G2U G7A G27U A39C C42G G44A, the figure is 0.02. Consider G2U A24G G35U, for which the self-cleavage turned out to be 0.11. G2U A14U G17C: the self-cleavage amounted to 0.04. On to G2U A26U U28A, for which the self-cleavage stood at 0. As for G2U C42U C46A, the figure is 0.08; as for G2U C3A C8G C13A A14C A16U G21A G22U, 0.05. Turning to G2U G5A G7A A26G G29C, the self-cleavage was 0.15. For the variant G2U A16U U32C G33C C37A, the self-cleavage worked out at 0.01. Take G2U C18U G29U U32C: the self-cleavage was 0.03. Consider G2U C13U C23G G27A, for which the self-cleavage worked out at 0.01. With G2U C3A C8U A16U A24U G44C, the self-cleavage was determined as 0.43. Regarding G2U A16C C42G C45A, the self-cleavage came to 0.01. The figure for G2U C18G U28C is 0.01; for G2U C8G G36C it is 0.03; for G2U C3G G7A A12C G44U it is 0.02. Consider G2U A16U G27U, for which the self-cleavage was determined as 0.02.

For G2U A14U G19A G22U, the self-cleavage was determined as 0.05. For G2U C18A G19A G27U U38G A41U, the self-cleavage is 0.01. For G2U C31A C46G, the self-cleavage was 0.01. For G2U C15A A16U U28G C45U, the self-cleavage was found to be 0.01.

As for G2U C8A U9G A11G G40C U43C, the self-cleavage amounted to 0.02. As to G2U A14C A26G, the self-cleavage came to 0. As for G2U C10G A11G G17C G33U U34C, the figure is 0.01; as for G2U A14U G35U, 0.04. The figure for G2U C10A C18A G21C G27C is 0.01; for G2U G5A U34A it is 0.02; for G2U C31U U32A it is 0.02. Regarding G2U C3G C13G G17U, the self-cleavage is 0.05. For the variant G2U C23A G30A C46U, the self-cleavage worked out at 0.11. Take G2U G5U G27A C37A G44C: the self-cleavage was found to be 0.03. Turning to G2U C13U U34A G44A, the self-cleavage was 0.09. For the variant G2U C8A U9G C18U G30A A39C A41U, the self-cleavage worked out at 0.01. The figure for G2U C10G C13A A14U A25C is 0.01; for G2U C8A U32C it is 0.02; for G2U G5A G27U G35U it is 0.04. The figure for G2U A25U G40U is 0.03.

As for G2U C8A C42G, the self-cleavage stood at 0.05.

G2U C3U G22U G35A: the self-cleavage is 0.15. Turning to G2U C3G C10G A11G G22A U38A, the self-cleavage was found to be 0.01. As for G2U G5A C31A C42U, the figure is 0.03. The figure for G2U C18A U43C is 0.02; for G2U A14G G36A U38A it is 0.01; for G2U C13U A26C G30U C46A it is 0.04. The figure for G2U C15A C31U G36A is 0.07; for G2U C23G G35U it is 0.03; for G2U C8U C37A it is 0.17. In the case of G2U C3U A11G G17A A26G U32A, the self-cleavage turned out to be 0.01. G2U C23A A24G U28C G30C A41G U43C: the self-cleavage was 0. For the variant G2U C31A C45U, the self-cleavage is 0.09. Take G2U C13U U28A G36A C37A: the self-cleavage was 0.1.

With G2U C15U U34G, the self-cleavage was found to be 0.05. Take G2U A26G U28C G40C A41G: the self-cleavage is 0.02. As for G2U A14G G29A G36U U43C, the figure is 0.03. The figure for G2U C3G G17A C23U C31A G33A is 0.03; for G2U A14G A24G G36C it is 0.01. As for G2U G7A A16U U32G C42A, the self-cleavage is 0.16.

In the case of G2U C10U A24G U32C, the self-cleavage worked out at 0.02.

On to G2U C8U C15A C31G G40U, for which the self-cleavage came out at 0.01. Turning to G2U C8U C10G A14C G19C G35C, the self-cleavage came out at 0. For the variant G2U C18A A26C G27A, the self-cleavage was determined as 0.12. For G2U C13A C45A, the self-cleavage is 0.09. Regarding G2U A25U C42U, the self-cleavage is 0.02. The figure for G2U A26C G29U is 0.1; for G2U G7A U34G it is 0.01; for G2U C18G G19C G29A G36C it is 0.08. Take G2U C31G A41C: the self-cleavage is 0.02. On to G2U C3U G5A, for which the self-cleavage was determined as 0.02. As for G2U C13U A14C A25C U32C U38C, the figure is 0.26. On to G2U A26U G44C, for which the self-cleavage was determined as 0.02. On to G2U G5C U9A G19C U43A, for which the self-cleavage stood at 0.01. As for G2U C13A G30A, the self-cleavage amounted to 0.04. As for G2U C10U A12G C18G A41G, the figure is 0; as for G2U C13U G35U, 0.11. On to G2U C3U C8G C15A C18G C23U C37A, for which the self-cleavage was found to be 0.12. For the variant G2U C3U G7C A11C C42U, the self-cleavage was 0.01. G2U A24U A25G: the self-cleavage was determined as 0.02. As for G2U G5A C18U C23A A24C A39G, the self-cleavage was found to be 0.02. With G2U C13A A16G G17C, the self-cleavage was determined as 0.06. As for G2U C3A A16C G35U, the figure is 0.04. As for G2U A14G G21C, the self-cleavage came to 0.08. For the variant G2U A16U C45U, the self-cleavage came out at 0.01. G2U C10U C23U A24U: the self-cleavage was 0.03.

G2U G5C A12G A24G: the self-cleavage turned out to be 0.02.

With G2U C3A U20A C31A U34C, the self-cleavage amounted to 0.07. On to G2U G7C A11U A14G G19A G22U C23U, for which the self-cleavage came out at 0.01. The figure for G2U G7A C18A A41G is 0.03.

Consider G2U G7C A11U A16C, for which the self-cleavage was found to be 0.05. The figure for G2U G5U G7A C37A C42U is 0.01. On to G2U C8U U9A, for which the self-cleavage was found to be 0.16. Take G2U C8U U9C: the self-cleavage is 0.07. G2U C8G A24C C45G: the self-cleavage turned out to be 0.01. G2U C18A G33U C37A A39C: the self-cleavage came to 0.

With G2U C3U G7U, the self-cleavage is 0.06.

As to G2U A14C A16C G17U C23G U28A G29C C31A C45A, the self-cleavage amounted to 0.01. The figure for G2U G7A C23U U32C G33A is 0.01. Consider G2U C8A G22U C42G, for which the self-cleavage was determined as 0.02. As to G2U C8A G27U G33A, the self-cleavage was 0.04.

Take G2U A26G U28G G33A A39C: the self-cleavage is 0.01. Turning to G2U A12U G35A, the self-cleavage is 0. Regarding G2U A25U U32C G40U, the self-cleavage was 0.04.

In the case of G2U G5C A24C U34A A39G, the self-cleavage worked out at 0.02. On to G2U C18G G27U, for which the self-cleavage turned out to be 0.03. The figure for G2U A16U G21C U38A G44A is 0.
